According to paper PMC4336329 (PLoS ONE, 2015):
Among all 310,000 compounds or so, about 2,200 (0.71%) showed an effect of 50% or more. The effect is printed as a negative number. Some of the results follow.

target: human ether-à-go-go-related gene (hERG) potassium channel (human, UniProt Q12809); experiment: primary screen, population patch clamp on CHO cells stably expressing hERG
Sequence (Q12809 whole entry, looked up): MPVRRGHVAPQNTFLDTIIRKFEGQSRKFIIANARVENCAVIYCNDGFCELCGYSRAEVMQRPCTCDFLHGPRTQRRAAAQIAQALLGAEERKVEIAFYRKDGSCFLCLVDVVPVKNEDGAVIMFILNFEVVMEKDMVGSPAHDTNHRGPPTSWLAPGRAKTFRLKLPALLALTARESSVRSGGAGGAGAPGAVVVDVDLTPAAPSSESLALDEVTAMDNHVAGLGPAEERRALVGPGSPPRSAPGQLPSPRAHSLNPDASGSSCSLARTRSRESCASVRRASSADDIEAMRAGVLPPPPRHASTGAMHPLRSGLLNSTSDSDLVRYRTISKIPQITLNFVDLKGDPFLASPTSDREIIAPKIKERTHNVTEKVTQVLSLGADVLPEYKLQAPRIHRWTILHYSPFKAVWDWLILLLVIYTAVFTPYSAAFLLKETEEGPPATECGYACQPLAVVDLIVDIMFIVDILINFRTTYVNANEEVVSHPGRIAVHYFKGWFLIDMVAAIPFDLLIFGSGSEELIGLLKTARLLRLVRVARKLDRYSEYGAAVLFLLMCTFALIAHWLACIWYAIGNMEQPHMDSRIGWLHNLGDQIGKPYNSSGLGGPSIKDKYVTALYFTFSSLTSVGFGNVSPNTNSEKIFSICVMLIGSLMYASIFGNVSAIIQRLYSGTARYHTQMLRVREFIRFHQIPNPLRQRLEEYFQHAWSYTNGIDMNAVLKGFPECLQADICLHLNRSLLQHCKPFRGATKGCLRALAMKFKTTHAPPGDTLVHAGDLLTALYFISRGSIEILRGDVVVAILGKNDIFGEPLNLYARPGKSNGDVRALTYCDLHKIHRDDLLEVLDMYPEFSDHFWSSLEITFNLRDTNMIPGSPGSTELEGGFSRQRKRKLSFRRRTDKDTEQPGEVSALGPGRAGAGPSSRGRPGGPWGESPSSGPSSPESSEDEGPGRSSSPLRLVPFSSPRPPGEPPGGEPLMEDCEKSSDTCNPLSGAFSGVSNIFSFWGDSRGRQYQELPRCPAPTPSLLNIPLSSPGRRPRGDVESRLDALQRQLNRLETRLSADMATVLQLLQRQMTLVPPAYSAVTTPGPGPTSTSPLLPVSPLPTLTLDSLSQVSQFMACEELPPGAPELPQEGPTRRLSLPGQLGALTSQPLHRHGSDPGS

First: CCCn1c2c(c(O)c(C(=O)Nc3ncccc3O)c1=O)CCCC2
Second: CC(Sc1nnc(CN2CCCC2)n1Cc1ccccc1)C(=O)Nc1ccc(F)cc1 (stereo not shown)
The “hERG current change (%, negative = inhibition) at 1uM” value of the first is higher: 12.5% for the first, -9.37% for the second.

Compared with `CC(=O)c1ccc(S(=O)(=O)NCCCC(=O)NCCc2ccccn2)cc1`, `CC(=O)Nc1cccc(OCCCNC(=O)c2ccc(C(C)(C)C)cc2)c1` is higher in “hERG current change (%, negative = inhibition) at 1uM” value: 9.55% for the first, 12.2% for the second.

Going from `CSCCC(N=Cc1c(O)n(-c2ccc(Br)cc2)c(=O)[nH]c1=O)C(=O)OC(C)(C)C` (stereo not shown) to `CCNc1ccc(C(=O)OCC(=O)NC(C)c2ccccc2)cc1[N+](=O)[O-]` (stereo not shown), the “hERG current change (%, negative = inhibition) at 1uM” value falls from 11.2% to 5.32%.

Going from `O=S(=O)(Nc1ccccc1N1CCCCC1)c1ccc(F)cc1F` to `Cc1ccccc1CSCCNC(=O)c1ccc(Cl)c(S(=O)(=O)N2CCOCC2)c1`, the “hERG current change (%, negative = inhibition) at 1uM” value falls from 15.6% to -3.01%.

Compared with `N#Cc1nc(-c2ccco2)oc1N1CCN(c2cccc(Cl)c2)CC1`, `O=C(c1cccc([N+](=O)[O-])c1)N1CCN(c2cccc(Cl)c2)CC1` is higher in “hERG current change (%, negative = inhibition) at 1uM” value: 5.18% for the first, 5.93% for the second.

Going from `O=C(CNC(=O)c1ccco1)OCC(=O)c1cccc2ccccc12` to `O=C(NCc1ccccc1)NC1CC2CCC(C1)N2Cc1ccco1` (stereo not shown), the “hERG current change (%, negative = inhibition) at 1uM” value falls from 7.44% to 1.87%.

Compared with `CCN1CCN(c2cc(C)c3cc(NC(=O)CCC(=O)N4CCN(c5ccccc5)CC4)ccc3n2)CC1`, `Cc1ccc(N2CCN(C(=S)Nc3ccccc3)CC2)cc1` is lower in “hERG current change (%, negative = inhibition) at 1uM” value: 19.3% for the first, 15.8% for the second.

Compared with `CCNC(=O)Nc1ccc(OC)cc1OC`, `COc1cccc(CNC(=O)CCC(=O)n2ncc3cc(C)ccc32)c1OC` is higher in “hERG current change (%, negative = inhibition) at 1uM” value: 1.64% for the first, 9.76% for the second.

Compared with `COc1cc(/C=N/Nc2ccccc2[N+](=O)[O-])ccc1OC(=O)c1ccccc1F`, `COc1ccc(S(=O)(=O)N2Cc3ccccc3CC2C(=O)Nc2ccc(O)cc2)cc1OC` (stereo not shown) is lower in “hERG current change (%, negative = inhibition) at 1uM” value: -0.0539% for the first, -0.93% for the second.

Compared with `Cc1cc(C)n(CC(=O)N2N=C(C(F)F)CC2(O)C(F)F)n1` (stereo not shown), `Cc1cc2nc(-c3ccc4c(c3)CCC4)ccn2n1` is lower in “hERG current change (%, negative = inhibition) at 1uM” value: 13.7% for the first, 7.6% for the second.

First: COc1ccc(C(=O)Nc2c(C)csc2C(=O)O)cc1
Second: CC(=O)c1cccc(NC(=O)c2ccc(C)c(S(=O)(=O)N3CCOCC3)c2)c1
The “hERG current change (%, negative = inhibition) at 1uM” value of the first is lower: 6.59% for the first, 9.19% for the second.

Compared with `O=C(CSc1ccccc1)NC1CCCCCCC1`, `O=C(NC1(C(=O)NC2CCCCC2)CCCCC1)c1ccc2c(c1)OCO2` is higher in “hERG current change (%, negative = inhibition) at 1uM” value: 10.4% for the first, 12.8% for the second.

Compared with `CCN(CC)CCNC(=O)c1cn(-c2ccccc2)nc1-c1cccs1.Cl`, `CCN(CC(=O)Nc1cc(S(=O)(=O)N2CCOCC2)ccc1C)Cc1ccccc1` is higher in “hERG current change (%, negative = inhibition) at 1uM” value: -32.5% for the first, 6.88% for the second.

Compared with `COc1ccc(CCN(C)C(=O)CSc2nc3ncc(Cl)cc3[nH]2)cc1OC`, `Cc1nc2ncc(Br)cc2[nH]1` is higher in “hERG current change (%, negative = inhibition) at 1uM” value: 6.89% for the first, 7.94% for the second.

Going from `Cc1cccnc1NC(=S)Nc1ccc(Br)cc1Cl` to `Cc1ccc(N2CC(C(=O)Nc3nccs3)CC2=O)cc1Cl` (stereo not shown), the “hERG current change (%, negative = inhibition) at 1uM” value falls from 10.4% to 6.52%.

Going from `O=C1C2C(c3ccccc3)C=CC(c3ccccc3)C2C(=O)N1c1ccccn1` (stereo not shown) to `Cn1c(NCc2ccccc2Cl)nc2ccccc21`, the “hERG current change (%, negative = inhibition) at 1uM” value falls from 11.1% to 2.08%.

First: N#CCCn1cc(C(=O)N2CCCCC2)c(-c2ccc([N+](=O)[O-])cc2)n1
Second: CC(=O)Nc1cc(C(=O)N2CCN(C)CC2)ccc1Sc1ccc(C)cc1
The “hERG current change (%, negative = inhibition) at 1uM” value of the first is higher: 0.956% for the first, -0.653% for the second.

Going from `CC1(C)C2CCC1(CS(=O)(=O)NCCc1c[nH]c3ccccc13)C(=O)C2` (stereo not shown) to `CCC(=O)NCCCc1nc(-c2ccccc2)no1`, the “hERG current change (%, negative = inhibition) at 1uM” value rises from -0.152% to 10.6%.

First: Cn1nccc1C(=O)Nc1ccn(C23CC4CC(CC(C4)C2)C3)n1
Second: CCN(C(=O)Cn1nnc(-c2ccccc2)n1)C1CCS(=O)(=O)C1 (stereo not shown)
The “hERG current change (%, negative = inhibition) at 1uM” value of the first is lower: -5.75% for the first, 12.8% for the second.

Going from `COc1ccc(N2Cc3ccccc3C2=O)cc1` to `CCOCCCNC(=S)N1CCN(c2nc(-c3ccccc3)cs2)CC1`, the “hERG current change (%, negative = inhibition) at 1uM” value falls from 15.4% to 9.5%.

First: Cc1ccc(C)c(S(=O)(=O)Nc2nc3ccc(S(N)(=O)=O)cc3s2)c1
Second: O=C(Cc1coc2cc3c(cc12)CCC3)NCC1(N2CCCCC2)CCCCC1
The “hERG current change (%, negative = inhibition) at 1uM” value of the first is higher: 15.7% for the first, -59.2% for the second.

With `CCN1CCn2c1nc(N1CCOCC1)nc2=O` the “hERG current change (%, negative = inhibition) at 1uM” value was 12.3%.
